# The other results are listed elsewhere or left out. At the low end of the ranking the order means little.
# Biological target: SIX1 homeodomain (reference allele) (UniProt Q15475)
# Assay: universal protein binding microarray
# Details: Universal all-10-mer PBM (8x60K, AMADID 030236), 300 nM GST-tagged protein, Alexa Fluor 488 anti-GST; buffer, salt, pH and temperature not stated; high values mean tight binding; most listed sequences are background and not binding sites; double strand, one strand shown
row,Sequence,binding signal [E-score]
1,CCAGGGGG,0.0356
2,ACGGCCAG,-0.0895
3,ATTTCATA,0.101
4,TCATAGGA,0.0152
5,CAGATCCG,0.322
6,CGGAAGTA,-0.0644
7,ACGATTGC,-0.179
8,GCCGGGCA,-0.127
9,TGGCCCCA,-0.198
10,CTCCAACA,-0.148
11,ATTATCTC,0.203
12,ATGTGTCA,-0.0934
13,ATCGGTTC,0.248
14,AGGTGAGA,0.159
15,ATTGGTCG,-0.147
16,CCGCTCAG,-0.13
17,GCGAACGA,-0.0695
18,ACACGACG,-0.103
19,ACACGTAC,0.0533
20,ACCAGTCC,-0.181
21,GGCGTAAC,-0.0886
22,ACCATCCC,0.14
23,CCTAAGAA,-0.122
24,CTATAAAG,-0.183
25,ACCCGTGA,0.0021

row,Sequence,binding signal [E-score]
1,CGGAGTGC,-0.00819
2,AAGTCGGT,-0.104
3,CAGCGGTA,0.0679
4,AATTTACT,-0.15
5,CAGCTCCA,-0.202
6,ACCACTAG,-0.0541
7,CGGTCTCA,0.197
8,ACTGGCGA,-0.151
9,CCAGTGTC,0.115
10,CAATTCCG,-0.0302
11,CGCCTTGC,-0.146
12,GGTACTTA,0.00543
13,CGATATCC,0.476
14,CATAACGC,-0.0736
15,GACTCTTA,-0.154
16,GTCGTGGA,-0.135
17,ACGATTTC,-0.105
18,CACCGTTC,0.111
19,CCCAAACG,-0.0457
20,CGGAATCC,0.116
21,ACCACTCC,-0.00203
22,CACTGCGG,0.0121
23,CGTGTGTC,-0.144
24,CAGTACAA,-0.0185
25,ATAGAAAG,0.0623

row,Sequence,binding signal [E-score]
1,CATTCTAG,-0.0986
2,AGTAATTA,-0.096
3,ATTAACGG,-0.00752
4,TAGTGTCA,0.245
5,AAAGGAGA,0.0556
6,CGGGAAGC,-0.107
7,CCGAAACA,-0.0822
8,CCAAGCAC,0.077
9,CGCATACC,0.266
10,CTCTGGGA,-0.0777
11,AGCCCATA,0.0811
12,CTCTGCAA,-0.00306
13,ACCTCGAT,0.233
14,AGTGTAAA,-0.188
15,AGGAAGAA,-0.263
16,CGAAATCC,0.07
17,AGCAGATC,0.286
18,GGATAAAC,0.294
19,AAAGCGGC,-0.146
20,CCTCCGCA,-0.115
21,GTCGCGAA,0.0741
22,AGTATGAC,0.0709
23,GTCGTAAA,-0.112
24,ATTAACGC,-0.133
25,TGGGTAAA,-0.109

row,Sequence,binding signal [E-score]
1,CGTTTGTA,-0.128
2,CAAGAAAG,-0.186
3,AAGTGCTA,-0.192
4,AGGACACA,-0.102
5,AGGCCGTC,-0.132
6,ACATACTC,0.073
7,GTGAACGA,-0.155
8,AGAGCAAC,-0.273
9,GCTTACCA,0.0292
10,AGCCAGAT,0.176
11,AATGGGCT,-0.0623
12,CAATCACA,-0.0869
13,GCTATGAC,-0.166
14,AACTCGCG,-0.116
15,GAGAGTCC,-0.13
16,CCCCTGAC,0.161
17,CACTGGCG,-0.107
18,AGAGCAAG,-0.0193
19,CCTAGGGA,0.109
20,TGTGGCAA,-0.225
21,ACCCTGGC,-0.00464
22,GACACAGA,-0.0207
23,ACCATGGG,-0.0162
24,ATTCGGCC,-0.128
25,CCGCTCGA,0.0783

row,Sequence,binding signal [E-score]
1,TACTAATA,0.17
2,ACTGTGTC,-0.159
3,CACCCTGA,0.287
4,CTCTGGGC,-0.162
5,ATAATTTG,0.124
6,CTCCTCCA,0.147
7,GGTGAGAA,0.162
8,ACCCTAAA,0.0849
9,CCCGTAAG,0.119
10,AAGCGGAA,-0.171
11,AGCTCAGG,-0.102
12,ATATCCTA,0.415
13,AGACGTCG,0.0141
14,AATAGGGA,0.0533
15,ACCCATGA,0.0803
16,CATTATGG,-0.0746
17,ACGCGCGC,-0.177
18,AGATAGAC,0.0724
19,GTTATCGA,0.129
20,CAGTTGTC,-0.118
21,ATTGCCCC,0.0985
22,GCCGTTCC,0.00558
23,AGGTGACT,-0.143
24,ACGAGACC,0.0931
25,CTGTTGAA,-0.0561

row,Sequence,binding signal [E-score]
1,CTCTACAA,-0.125
2,AATCATCT,0.14
3,ACCTTTCA,-0.154
4,ATGCAGGG,-0.0123
5,CCCAACTA,0.0977
6,AGAGAGTG,-0.16
7,GGATCGCC,0.342
8,AATGGACG,-0.214
9,CTAGGTGA,-0.0774
10,ATTGACGC,-0.149
11,CACAGGGG,0.0334
12,GCGGACTA,-0.00571
13,AATGCGCC,-0.103
14,TGACTCCA,-0.0674
15,CTCCGGAA,-0.127
16,CTGCAGGC,-0.203
17,GATCTTCA,0.274
18,CGACATGA,-0.00218
19,AGCTGATA,0.357
20,GGTAAGGA,-0.146
21,CGATACCG,0.45
22,CACAGCTC,-0.178
23,CATTCAAA,-0.166
24,AAGGTTTG,-0.0832
25,TACAACTA,0.0301

row,Sequence,binding signal [E-score]
1,ATATGAAT,0.19
2,CAAGGAGC,-0.0849
3,TAGTATGA,0.132
4,CTCACAGC,-0.0597
5,CCGAAGGA,-0.055
6,ACTTTAAT,-0.03
7,CCCGGGTA,0.228
8,GAAGGGGA,-0.0455
9,ACGTGTTA,-0.0702
10,GGCGCCGA,-0.215
11,ATCCACGC,0.114
12,CAGTCCAA,-0.111
13,GAGGAAGA,0.0544
14,ATAGCAAT,0.182
15,GCGCACAC,-0.00943
16,CCTATAAC,0.0784
17,CACAGAAC,-0.0647
18,ACCAGCTG,-0.0804
19,AAGTGGAA,-0.00252
20,TAAGCTGA,-0.066
21,GGTATCTA,0.426
22,ATGATCGG,0.294
23,ACTCGGCA,-0.07
24,GCCGGCAC,-0.097
25,AATTTGGG,-0.197

row,Sequence,binding signal [E-score]
1,GGGACCGA,-0.0812
2,CAGTGTGC,-0.274
3,CGGCTCTA,0.0423
4,ACTGACAT,-0.124
5,AGACTCCT,-0.139
6,AATTCATG,-0.000625
7,CCACACCG,0.151
8,GACCCAGC,-0.0994
9,ATAGCGTA,0.0667
10,ACCCCATG,0.0561
11,CATATGAC,0.166
12,CCACTGTA,0.147
13,CCAACCAC,0.0827
14,CCCGGACC,-0.0763
15,GGGAAAAC,-0.169
16,ACTACACT,0.139
17,CAACCCTA,-0.13
18,GCGGCCTA,-0.214
19,GCGCTTGA,0.0251
20,GAAGCATC,-0.0605
21,ATATTAAT,0.303
22,AAGTCTCC,-0.214
23,CGTACGAA,-0.119
24,CACAAGAC,-0.225
25,TGATCCAA,0.324

row,Sequence,binding signal [E-score]
1,ACGAATCG,-0.0264
2,AAAATGTA,-0.0661
3,AATCGCTA,-0.0491
4,AACATCGA,0.0119
5,GTTACAGA,-0.162
6,ACACAAAC,-0.172
7,CTCTTCAA,-0.232
8,CATGCTAA,-0.146
9,AAGCTTGT,-0.233
10,AGGGATAA,0.292
11,ATTGATCC,0.406
12,CATCTTTA,-0.0969
13,CTCTAGTC,-0.278
14,GATAGCGC,0.19
15,GAAAACAC,-0.117
16,TATCCACA,0.326
17,ATTATTTA,0.089
18,GAACTGGC,-0.218
19,ACGTCGGA,-0.00231
20,GTAACTAA,-0.101
21,ATGTTAGC,-0.0438
22,CCGAGCCC,-0.00271
23,AGTGTGAT,0.247
24,AGGCACAT,-0.208
25,ATACAAGG,0.0753

row,Sequence,binding signal [E-score]
1,CTACATGA,-0.0304
2,AAGGCAGT,-0.2
3,GCCGCTAC,-0.19
4,CACGGCCA,-0.242
5,CACAGATA,0.205
6,TAGCCTAA,-0.0109
7,AAAGCTAA,-0.374
8,AGAAAAAA,-0.259
9,GTGTACCA,0.112
10,ATCTCCTG,0.298
11,CGGGCCAC,-0.147
12,TTATCGAA,0.0356
13,GACTGCGA,-0.0786
14,ACAGGATA,0.236
15,GGAACTGA,-0.232
16,AGTCGCAC,-0.19
17,AGGTAAGG,-0.125
18,ATTCTAAA,-0.136
19,GATTATCA,0.219
20,ATTTGTGC,-0.149
21,ATGCTCCA,0.0144
22,AGGGATCC,0.386
23,CGACCTGC,-0.194
24,AAACAGAC,-0.326
25,CCAGCTGG,0.157

row,Sequence,binding signal [E-score]
1,AGGCAAGC,-0.336
2,CCCGCGAA,0.0489
3,GACGGACA,-0.169
4,ACGGTGCG,-0.0248
5,CAACTGCC,-0.215
6,GTACGCCA,-0.0308
7,AACCGAAC,-0.0711
8,AGCAACAC,0.0896
9,CCCGACCG,0.0499
10,ACACGTCA,-0.119
11,ATACATGC,0.271
12,CAATGCTA,-0.0933
13,CACCGAAG,-0.0271
14,GAATCGCA,-0.0764
15,GTAATGGA,0.0742
16,ACTCATTA,-0.141
17,ATAAAATC,0.148
18,ACCTACGA,-0.0113
19,CTCCTAAG,-0.0955
20,AGCTCGAC,-0.0702
21,AAGTGTAC,0.0592
22,ATGGGGGG,-0.00857
23,TAGGCCGA,-0.166
24,GAGAGTGC,-0.171
25,CGACTCCC,-0.0209

row,Sequence,binding signal [E-score]
1,CGCACATA,0.0156
2,AATAATGA,-0.0651
3,AGACTTAT,-0.017
4,GGCTCAAA,-0.0755
5,CGAAAAAA,-0.219
6,ATTGTCTA,0.0709
7,AGACGCAC,-0.0387
8,ACATTGGT,-0.193
9,CGCGGACG,-0.252
10,ACGAGGGG,-0.0487
11,ATTGACAA,-0.0716
12,GCTTGGCC,-0.146
13,CAAGTGAG,-0.0769
14,CAGCGCTA,-0.11
15,ACTTATAA,-0.0412
16,ATTAGCTA,0.112
17,AAGCACGT,-0.108
18,CGAGCGAA,-0.0247
19,TATTTCAA,0.00941
20,GTGATGCA,0.0839
21,CTCTGGCA,-0.166
22,ATCGACAT,0.134
23,CCGTTTGC,-0.0816
24,ATTCTCCG,-0.0964
25,CAATCGAC,-0.28

row,Sequence,binding signal [E-score]
1,GACACACA,0.0507
2,CCAGCCAC,-0.0813
3,CATCTAGA,0.186
4,CATCCACG,0.183
5,GTCCCGAC,-0.248
6,ATAACCTC,0.0599
7,CTTCTAAC,0.0517
8,ATGCTCAG,-0.1
9,ACCATTTG,-0.143
10,CGCATCCC,0.0819
11,AGTCGTAG,-0.0981
12,ATGGCACA,-0.226
13,CTCCTTGC,-0.121
14,GCAGATTA,0.177
15,ATAGCTGG,0.0714
16,TCACCGCA,-0.0496
17,ATATGTAA,0.0862
18,AGATAGTG,0.152
19,GTACATCA,-0.0869
20,GTTTTAAA,-0.121
21,AGGTATGC,0.0795
22,CCCGGTTA,-0.0155
23,GATCGGAC,0.248
24,ACCCTCTC,0.155
25,CAATGCCG,-0.155

row,Sequence,binding signal [E-score]
1,CACTGCTG,-0.0892
2,CCGTTGTA,0.0251
3,AGAGCCCG,-0.138
4,CGAAGCAG,-0.159
5,GGATTATA,0.362
6,ATAATGTC,-0.0643
7,CAGAGAGG,-0.0343
8,AAACACGG,-0.0305
9,ACAAGTCT,-0.192
10,ATAAAGAG,-0.183
11,ATATCACC,0.463
12,ATTCGCAC,0.00179
13,CCGATTTC,-0.268
14,TCACTTAA,0.0709
15,ACGAGCCC,0.0651
16,GAAGGAAC,-0.185
17,ATCGATGG,0.185
18,ATAGATCA,0.353
19,ATGTTCAA,-0.148
